According to article PMC10348673 (Science Advances, 2023):

B1: mVenus-RIT1 A57G (natural protein)
chain: not shown
notes: RIT1 A57G, BRET acceptor fusion; source: HEK293T, transfected, in intact cells
B2: BRAF-RBD ([…]) (domain or fragment)
chain: not shown
notes: A glycine may be left at the N-terminus after TEV cleavage (surmised); also called BRAF ([…]); source: E. coli, purified (IMAC, TEV digest, second IMAC, SEC); not shown: His6, N-terminal, cleaved; MBP, N-terminal, cleaved

What was measured:
[1] = target: T1, RAF1-nanoLuc (UniProt P04049); test: FRET or BRET; nanoBRET in intact HEK293T cells; mVenus-RIT1 acceptor titrated (0 to 1000 ng DNA), RAF-nanoLuc donor constant; BRET50 from non-linear fit; details: partners not purified
T1 construct: RAF1 (CRAF), BRET donor fusion; also called RAF1-nanLuc; RAF-nanoLuc (donor); source: HEK293T, transfected, in intact cells

[2] = target: T2, RIT1 A57G (17 to 197) (UniProt Q92963 part only, A57G); test: ITC; MicroCal PEAQ-ITC; 300 μM RAF RBD in the syringe titrated onto 100 μM RIT1 (GMPPNP-bound) in the cell; 20 mM Hepes, 150 mM NaCl pH 7.4, 5 mM MgCl2, 1 mM TCEP; average of three experiments; details: both partners purified
T2 construct: 15N-labelled or unlabelled in the NMR; A glycine may be left at the N-terminus after TEV cleavage (surmised); source: E. coli, purified (IMAC, TEV digest, second IMAC, SEC); not shown: His6, N-terminal, cleaved; MBP, N-terminal, cleaved

| Binder | fold tighter than WT RIT1 (by BRET50) [1] [fold] | binding result [2] |
| --- | --- | --- |
| B1 | ~10 | – |
| B2 | – | binds |
